# The campaign covered roughly 310,000 compounds. About 14,000 (4.5%) showed an effect of 50% or more. The effect is printed as a negative number. The list shows a part of the results.
# Biological target: human ether-à-go-go-related gene (hERG) potassium channel (human, UniProt Q12809)
# Assay: primary screen, population patch clamp on CHO cells stably expressing hERG
# 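Further: peak tail current of the secondary pulse compared with the same well before compound.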
# Sequence of human ether-à-go-go-related gene (hERG) potassium channel (Q12809 whole entry, looked up): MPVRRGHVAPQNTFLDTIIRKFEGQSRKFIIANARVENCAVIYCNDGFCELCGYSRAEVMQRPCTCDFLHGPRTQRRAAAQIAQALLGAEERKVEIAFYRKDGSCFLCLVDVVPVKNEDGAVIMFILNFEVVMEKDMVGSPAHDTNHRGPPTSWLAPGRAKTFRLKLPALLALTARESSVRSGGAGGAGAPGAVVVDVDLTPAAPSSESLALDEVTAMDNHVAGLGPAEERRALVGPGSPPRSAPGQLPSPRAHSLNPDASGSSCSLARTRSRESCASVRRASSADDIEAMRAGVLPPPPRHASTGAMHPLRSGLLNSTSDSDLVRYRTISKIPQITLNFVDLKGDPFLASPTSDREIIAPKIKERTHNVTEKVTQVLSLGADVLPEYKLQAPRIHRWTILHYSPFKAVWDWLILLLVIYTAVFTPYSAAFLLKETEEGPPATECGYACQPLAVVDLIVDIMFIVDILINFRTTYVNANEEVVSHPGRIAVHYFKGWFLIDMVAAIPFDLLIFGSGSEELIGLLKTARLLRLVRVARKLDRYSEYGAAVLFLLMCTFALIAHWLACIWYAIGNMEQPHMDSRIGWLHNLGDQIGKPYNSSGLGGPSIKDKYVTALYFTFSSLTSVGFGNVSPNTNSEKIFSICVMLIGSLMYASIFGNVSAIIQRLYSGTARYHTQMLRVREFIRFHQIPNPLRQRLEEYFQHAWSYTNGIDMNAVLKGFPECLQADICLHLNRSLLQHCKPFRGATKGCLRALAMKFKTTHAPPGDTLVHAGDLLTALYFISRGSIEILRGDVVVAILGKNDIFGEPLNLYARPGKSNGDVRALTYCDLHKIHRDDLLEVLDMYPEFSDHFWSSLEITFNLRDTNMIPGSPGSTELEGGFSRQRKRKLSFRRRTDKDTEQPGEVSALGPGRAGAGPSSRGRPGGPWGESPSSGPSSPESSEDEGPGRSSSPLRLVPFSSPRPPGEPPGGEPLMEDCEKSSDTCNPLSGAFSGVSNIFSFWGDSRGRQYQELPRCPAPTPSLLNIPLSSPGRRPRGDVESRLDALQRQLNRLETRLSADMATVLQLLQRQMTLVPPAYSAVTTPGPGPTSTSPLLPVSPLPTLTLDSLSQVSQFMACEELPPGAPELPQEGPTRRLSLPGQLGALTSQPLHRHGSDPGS
row,Compound,"hERG current change (%, negative = inhibition) at 10uM"
1,COc1ccc(CC(=O)Oc2ccc(C#N)cc2)cc1,21.7%
2,C[C@]1(C(=O)NCCc2c[nH]c3ccccc23)C=C[C@@H](Cc2ccccc2)N1C(=O)c1ccccc1,-24%
3,NC(=O)c1ccc(Nc2ccc3c(c2)CCC3)c([N+](=O)[O-])c1,8.96%
4,Cc1cccc(C)c1NC(=O)C1=C(O)c2ccccc2N(C)S1(=O)=O,19.2%
5,O=C(NC(=S)NC1CCSC1=O)c1ccccc1 (centres unmarked),9.63%
6,CCN(CC)C(=O)Cn1c(=O)n(-c2ccccc2)c(=O)c2c3c(sc21)CCC3,13.7%
7,Cc1noc(NC(=O)c2ccccc2Cl)c1C#N,2.2%
8,Cc1cc(C)nc(N/N=C/c2ccccc2)n1,2.03%
9,CC(C)(C)NC(=O)NC(=O)CN1CCc2ccccc21,-2.41%
10,OC(CNC1Cc2ccccc2C1)c1ccccc1 (centres unmarked),-6.88%
11,Cc1ccc(C(=O)Nc2ccccc2C(=O)NC(CC(=O)O)C(=O)O)cc1 (centres unmarked),-4.79%
12,Cc1ccc(-c2ccc([C@H]3[C@@H]4C=CCC[C@@]4(C)C(=O)N3Cc3ccccc3)c(F)c2)cc1,15.1%
13,COc1cc(C(=O)N2CCCN(c3nc4cc(C)ccc4cc3C#N)CC2)cc(OC)c1OC,-53.5%
14,CN(CC(=O)Nc1cccc(S(=O)(=O)NC2=NCCC2)c1)Cc1cccc(F)c1,-4.31%
15,CCOC(=O)N1CCN(c2ccccc2O)CC1,-1.09%
16,O=C(COC(=O)c1ccc([N+](=O)[O-])o1)Nc1cccc2ccccc12,23.8%
17,COc1ccc(NC(=O)COC(=O)COc2cccc(Br)c2)cc1OC,12.1%
18,CCCCN(CCCC)c1nc2ccccc2nc1C(C#N)C(=O)NCCCOC (centres unmarked),4.47%
19,CCCN(CC(=O)Nc1ccccc1OC)C(=O)CSC(=S)N1CCCC1,-24%
20,O=C(CCC(=O)N(CC(=O)NC1CCCCC1)Cc1ccccc1)Nc1nccs1,9.38%
21,Cc1cc(NC(=O)c2cc3ccccc3o2)cc(C)c1OCC(=O)N1CCOCC1,-46.1%
22,NS(=O)(=O)c1cc(C(=O)NCCOc2ccccc2)c(Cl)cc1Cl,11.8%

row,Compound,"hERG current change (%, negative = inhibition) at 10uM"
1,Cc1cc(C)c(NC(=O)Cn2nnc(C(=O)NCCc3ccccc3)c2N)c(C)c1,30.6%
2,CCN(CC)c1ccc(CNc2ccc3c(c2)ncn3C(C)(C)C)cc1,1.91%
3,O=C(N=Nc1c(O)[nH]c2ccccc12)c1ccccc1NS(=O)(=O)c1cccs1,5.86%
4,CCOC(=O)COc1ccc(S(=O)(=O)NC2CC2)cc1,14.2%
5,O=C(COc1ccc(Cl)cc1)N1CCN(C(=O)c2cccs2)CC1,-74.5%
6,O=C(/C=C/c1ccccc1)C1=C(O)C(=O)N(CCO)C1c1ccccc1[N+](=O)[O-] (centres unmarked),9.59%
7,O=C(Cn1ncc2c(=O)oc3ccccc3c21)NCCc1ccsc1,-54.2%
8,Cc1ccccc1C(OCCN(C(C)C)C(C)C)c1ccccc1.O=C(O)/C=C\C(=O)O (centres unmarked),-68.3%
9,CCc1ccc(NC(=O)CC2C(=O)N(c3ccc(OC)cc3)C(=O)N2CCOC)cc1 (centres unmarked),-5.67%
10,Cc1c(C)c2ccc(OCC(=O)NCCN3CCOCC3)c(C)c2oc1=O,1.61%
11,CCCn1c(=O)c2ccccc2n2c(SCC(=O)c3ccccc3)nnc12,-9.27%
12,O=C1OC(Nc2ccccn2)c2ccccc21 (centres unmarked),-5.61%
13,COc1cccc(C(=O)/C(C#N)=N/Nc2cccc(-c3ccnc(C)n3)c2)c1,-29.9%
14,Cc1c(NC(=O)C(C)OC(=O)CCOc2ccccc2)c(=O)n(-c2ccccc2)n1C (centres unmarked),9.35%
15,Cc1ccc(/C=C/C(=O)c2nc3ccccc3[nH]2)cc1,-3.88%
16,CC1(C)CC(=O)C(c2c[nH]c3ccccc23)C(=O)C1,20.3%
17,O=C(/C=N\O)NCCCNCc1ccccc1,-12.7%
18,O=C(Cn1ccc(NC(=O)OCc2ccccc2)nc1=O)NCc1ccccn1,7.53%
19,CC(C)CCSc1nc(N2CCOCC2)c2c(c1C#N)CC(C)(C)OC2,7.88%
20,CCOC(=O)CNC(=S)N(Cc1cccs1)C1CCCC1,-5.82%
21,O=C(SCC(O)C(O)CS)c1cccs1 (centres unmarked),2.18%
22,NC(=O)c1ccc(-n2nnnc2Oc2ccc(Br)cc2)cc1,-3.65%

# Source: paper PMC4336329 (PLoS ONE, 2015)
